Data from PMC4336329 (PLoS ONE, 2015).
The campaign covered roughly 310,000 compounds. About 2,200 (0.71%) showed an effect of 50% or more. Effects have a minus sign here. This is one part of the list.

molecular target: human ether-à-go-go-related gene (hERG) potassium channel (human, UniProt Q12809); experiment: primary screen, population patch clamp on CHO cells stably expressing hERG
Sequence (Q12809 whole entry, looked up): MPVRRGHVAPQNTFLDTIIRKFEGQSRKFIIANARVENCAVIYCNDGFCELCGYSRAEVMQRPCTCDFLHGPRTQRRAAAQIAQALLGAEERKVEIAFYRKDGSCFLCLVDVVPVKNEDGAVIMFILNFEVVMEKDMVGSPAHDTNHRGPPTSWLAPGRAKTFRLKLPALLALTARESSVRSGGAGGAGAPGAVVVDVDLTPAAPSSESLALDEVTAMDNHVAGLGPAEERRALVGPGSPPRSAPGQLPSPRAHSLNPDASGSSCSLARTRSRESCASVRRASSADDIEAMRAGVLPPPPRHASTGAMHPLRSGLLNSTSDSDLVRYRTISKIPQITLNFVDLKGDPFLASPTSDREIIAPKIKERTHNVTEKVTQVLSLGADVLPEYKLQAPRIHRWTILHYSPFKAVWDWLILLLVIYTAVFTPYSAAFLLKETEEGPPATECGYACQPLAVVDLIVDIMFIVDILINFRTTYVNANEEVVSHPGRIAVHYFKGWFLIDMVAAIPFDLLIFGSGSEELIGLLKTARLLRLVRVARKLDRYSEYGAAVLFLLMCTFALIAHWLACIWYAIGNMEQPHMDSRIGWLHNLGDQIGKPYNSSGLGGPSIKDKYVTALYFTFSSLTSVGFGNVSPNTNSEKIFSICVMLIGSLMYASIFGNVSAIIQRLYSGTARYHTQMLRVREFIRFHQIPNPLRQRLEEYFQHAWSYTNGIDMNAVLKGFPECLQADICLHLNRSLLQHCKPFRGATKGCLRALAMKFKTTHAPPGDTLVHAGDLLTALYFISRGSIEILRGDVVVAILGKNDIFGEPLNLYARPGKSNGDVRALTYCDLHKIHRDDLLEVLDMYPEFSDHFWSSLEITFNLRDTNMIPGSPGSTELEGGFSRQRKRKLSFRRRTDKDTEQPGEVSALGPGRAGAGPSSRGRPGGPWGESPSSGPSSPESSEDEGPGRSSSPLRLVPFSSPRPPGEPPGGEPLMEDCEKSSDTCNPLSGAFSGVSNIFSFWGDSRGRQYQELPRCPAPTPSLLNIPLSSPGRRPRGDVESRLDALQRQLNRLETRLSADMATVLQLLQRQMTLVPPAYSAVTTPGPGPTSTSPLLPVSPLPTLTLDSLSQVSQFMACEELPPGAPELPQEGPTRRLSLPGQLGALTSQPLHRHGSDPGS

First: CCc1cc(=O)oc2cc(C)cc(OC(C)C(=O)NCC(O)c3ccccc3)c12 (stereo not drawn)
Second: CCC(CO)NCc1cc(OC)c(OCC(=O)NCCc2ccccc2)cc1Br (stereo not drawn)
The “hERG current change (%, negative = inhibition) at 1uM” value of the first is higher: 8.7% for the first, 5.45% for the second.

Going from COc1cc(OC)cc(C(=O)NNC(=S)NC(=O)c2cccnc2)c1 to COc1ccc(NC(=S)Nc2cccnc2)c(OC)c1, the “hERG current change (%, negative = inhibition) at 1uM” value falls from 12.9% to 12.3%.

Compared with Cc1cc(Br)ccc1NC(=O)CN(C)C(=O)c1cc([N+](=O)[O-])ccc1N1CCOCC1, O=C(NNC(=O)c1cc(Cl)ccc1[N+](=O)[O-])c1csc(N2CCOCC2)n1 is higher in “hERG current change (%, negative = inhibition) at 1uM” value: -1.68% for the first, 15.3% for the second.

Compared with CCOc1ccc(OCC)c(NC(=O)C2CCN(S(=O)(=O)c3c(C)[nH]c(=O)[nH]c3=O)CC2)c1, CCOc1ccc(NC(=O)CCNc2c(N3CCCC3)c(=O)c2=O)cc1 is higher in “hERG current change (%, negative = inhibition) at 1uM” value: 10.6% for the first, 11.5% for the second.

First: CC(=O)c1ccc(OCCCC(=O)Nc2cc(Cl)ccc2-n2cncn2)cc1
Second: COc1ccc(NC(=O)CSc2ncnc3c2cnn3CCc2ccccc2)cc1
The “hERG current change (%, negative = inhibition) at 1uM” value of the first is lower: -6.8% for the first, 4.35% for the second.

Compared with Cc1c(CCC(=O)O)c(=O)n2c([nH]c3ccccc32)c1C#N, Cn1c(N)c(C(=O)Nc2ccccc2)c(=O)[nH]c1=O is higher in “hERG current change (%, negative = inhibition) at 1uM” value: -2.51% for the first, 19% for the second.

First: COC(=O)c1[nH]c2ccc(Cl)cc2c1NC(=O)C1CC1
Second: O=C(COC(=O)c1sc2ccccc2c1Cl)Nc1ncc(Cl)cc1Cl
The “hERG current change (%, negative = inhibition) at 1uM” value of the first is higher: 9.95% for the first, -4.17% for the second.

Going from CC(=O)c1c(C)nn(CC(O)COc2ccc3c(c2)CCC3)c1C (stereo not drawn) to O=C(CSc1nc2ccc(Cl)cc2[nH]1)Nc1ccc2c(c1)CCC2, the “hERG current change (%, negative = inhibition) at 1uM” value falls from 15.7% to 7.09%.

First: Cc1ccsc1/C=N/N1CCN(Cc2ccccc2)CC1
Second: COc1ccccc1/C=C/CN1CCSCC1
The “hERG current change (%, negative = inhibition) at 1uM” value of the first is higher: 12.3% for the first, 8.05% for the second.

First: O=C1c2ccccc2C(=O)N1CC(O)COc1ccccc1Cl (stereo not drawn)
Second: COc1cccc(OCC(O)CN2CCC(CN3C(=O)c4cccc5cccc(c45)C3=O)CC2)c1.Cl (stereo not drawn)
The “hERG current change (%, negative = inhibition) at 1uM” value of the first is higher: 12.1% for the first, -41% for the second.

Going from CS(=O)(=O)N1CCN(C(=O)Cc2cccs2)CC1 to CCCc1cnc(N2CCN(S(=O)(=O)c3cccs3)CC2)nc1, the “hERG current change (%, negative = inhibition) at 1uM” value falls from 19.4% to 6.84%.

First: CC(C)(C)NC(=O)C(c1c[nH]c2ccccc12)N(C(=O)Cn1nnc(-c2ccc(Cl)cc2)n1)c1ccccc1F (stereo not drawn)
Second: CCc1ccccc1-n1nnc(-c2ccccc2)n1
The “hERG current change (%, negative = inhibition) at 1uM” value of the first is higher: 10.2% for the first, 7.29% for the second.

Compared with Cc1ccc(CN2C(=O)CC(Nc3ccc(N4CCOCC4)cc3)C2=O)cc1 (stereo not drawn), Cc1ccc(-n2c(-c3ccc(Cl)cc3)n[nH]c2=S)cc1 is lower in “hERG current change (%, negative = inhibition) at 1uM” value: 13.9% for the first, 9.84% for the second.

Compared with O=C(Nc1nc2ccccc2s1)C1CCCN1S(=O)(=O)c1ccc(Cl)cc1 (stereo not drawn), NNC(=O)c1ccc(S(=O)(=O)N2CCc3ccccc32)cc1 is higher in “hERG current change (%, negative = inhibition) at 1uM” value: 8.38% for the first, 9.63% for the second.

Going from COCCn1nnnc1CN1CCC(NC(=O)Nc2cccc(OC)c2)CC1 to COc1cccc(/C=N/NC(=O)NC2CCCCC2)c1O, the “hERG current change (%, negative = inhibition) at 1uM” value falls from 10% to 1.35%.

Compared with Cc1c(CNCCc2ccc(Cl)cc2)c(C(=O)O)c(C)n1Cc1ccccc1, O=C(CC1SC(=NCCc2ccccc2)N(/N=C/c2cccs2)C1=O)Nc1ccc(Cl)cc1 (stereo not drawn) is higher in “hERG current change (%, negative = inhibition) at 1uM” value: -0.847% for the first, 16.7% for the second.

First: CCN(C(=O)COC(=O)/C=C/c1c(C)nn(Cc2ccc(C)cc2)c1C)C1CCS(=O)(=O)C1 (stereo not drawn)
Second: CCc1cccc2c(C(=O)COC(=O)/C=C/c3ccccc3OC)c[nH]c12
The “hERG current change (%, negative = inhibition) at 1uM” value of the first is higher: 13.9% for the first, -6.37% for the second.

Going from CCOC(=O)Cc1cnc(NC(=O)CSc2nc(N)cc(=O)[nH]2)s1 to CCC1CCCCN1C(=O)CSc1nc(N)c(NC(=O)c2ccc(OC)c(OC)c2)c(=O)[nH]1 (stereo not drawn), the “hERG current change (%, negative = inhibition) at 1uM” value rises from 8.9% to 14.8%.

Going from CCC(=O)NC(Nc1ncc(C)s1)(C(=O)OC)C(F)(F)F (stereo not drawn) to Cc1ccc([N+](=O)[O-])c(OCCCNCC(C)O)c1.O=C(O)C(=O)O (stereo not drawn), the “hERG current change (%, negative = inhibition) at 1uM” value rises from -2.89% to 4.78%.

First: COC(=O)C1=C(C(=O)c2ccccc2)C(c2ccc(O)c(OC)c2)n2nnnc2N1 (stereo not drawn)
Second: COC(=O)C1CSC(c2ccc(Cl)cc2)N1C(=O)c1ccccc1 (stereo not drawn)
The “hERG current change (%, negative = inhibition) at 1uM” value of the first is higher: 15.2% for the first, 0.633% for the second.

Compared with COc1ccc(C2(C(=O)Nc3ccc(S(=O)(=O)Nc4nc(C)cc(C)n4)cc3)CCCC2)cc1OC, CCOc1ccc(CC(=O)Nc2ccc(S(=O)(=O)Nc3cc(C)on3)cc2)cc1OCC is higher in “hERG current change (%, negative = inhibition) at 1uM” value: 5.84% for the first, 10% for the second.

First: CCN(CC)C(=O)CC(c1ccc(N(C)C)cc1)c1c(OC)cc(OC)c2ccc(=O)oc12 (stereo not drawn)
Second: COc1ccc(C(=O)Nc2cc(OC)ccc2OC)cc1
The “hERG current change (%, negative = inhibition) at 1uM” value of the first is lower: 4.86% for the first, 13.8% for the second.

Going from FC(F)(F)c1ccncc1-c1nnnn1-c1ccc(Cl)cc1 to O=C(Nc1cccc(C(F)(F)F)c1)c1ccc(Cn2cc(Br)cn2)o1, the “hERG current change (%, negative = inhibition) at 1uM” value rises from -6.85% to -1.53%.

First: Fc1ccc(COc2ccc(-c3nnco3)cc2)c(Cl)c1
Second: COc1cccc(-c2nn(-c3ccccc3)cc2CN(C)C(C)c2ccon2)c1 (stereo not drawn)
The “hERG current change (%, negative = inhibition) at 1uM” value of the first is lower: 8.13% for the first, 12.1% for the second.

First: O=c1[nH]c(=S)n(CCC2=CCCCC2)c(O)c1/C=N/Nc1ccccc1
Second: O=C(NCCN1CCCCC1)/C(=N\O)c1ccccc1
The “hERG current change (%, negative = inhibition) at 1uM” value of the first is lower: 3.99% for the first, 10.5% for the second.

Going from CCCCN(CC)CCNC(=O)CN(C)S(=O)(=O)c1ccc2c(c1)c(=O)n(C)c(=O)n2C to Cn1c(=O)c2[nH]c(-c3ccc(S(=O)(=O)O)cc3)nc2n(C)c1=O.O, the “hERG current change (%, negative = inhibition) at 1uM” value rises from 6.94% to 11.2%.

Going from COc1ccc(OC)c(NC(=O)Cn2c(=O)n(CC3CCCO3)c(=O)c3cc(OC)c(OC)cc32)c1 (stereo not drawn) to COc1ccccc1NS(=O)(=O)c1cc(NC(=O)c2ccc3c(c2)OCCO3)ccc1C, the “hERG current change (%, negative = inhibition) at 1uM” value rises from 7.48% to 8.49%.

Going from O=C1CCC(C(=O)NCCN2C(=O)S/C(=C\c3cccnc3)C2=O)=NN1 to Cc1cc(SCC(=O)NCCN2C(=O)CSC2=O)nc2ccccc12, the “hERG current change (%, negative = inhibition) at 1uM” value rises from 4.89% to 10.2%.

Going from Cc1cc(NC(=O)CC2CCCC2)ccc1Br to Cc1cc(NC(=O)Nc2c[nH]c(=O)[nH]c2=O)ccc1Br, the “hERG current change (%, negative = inhibition) at 1uM” value falls from 15.1% to 10.6%.

Going from COc1ccc(-c2cc(C(=O)NCCCN3CCOCC3)c3cc(C(C)C)ccc3n2)cc1 to CC(CCc1ccccc1)NC(=O)COc1ccc(S(=O)(=O)N2CCOCC2)cc1[N+](=O)[O-] (stereo not drawn), the “hERG current change (%, negative = inhibition) at 1uM” value falls from 14.7% to 11.6%.

Compared with COC(=O)c1nn(-c2ccccc2)c(Cl)c1/C=N/O, CCS(=O)(=O)c1ccc(NC(=O)c2ccccc2Cl)c(O)c1 is lower in “hERG current change (%, negative = inhibition) at 1uM” value: 5.24% for the first, 4.15% for the second.

Going from CC(=O)/C=C1\N(C)c2ccc(C)cc2C1(C)C to COC(=O)c1c(C)[nH]c(C(=O)OCC(=O)N2c3ccccc3NC(=O)C2(C)C)c1C, the “hERG current change (%, negative = inhibition) at 1uM” value falls from 13.7% to 7.72%.

Going from O=C(NCc1cccnc1)C1CC(c2cccc(Br)c2)=NO1 (stereo not drawn) to CC(=O)Nc1ccc2oc(-c3ccccc3)nc2c1, the “hERG current change (%, negative = inhibition) at 1uM” value rises from 11.7% to 16.1%.

Going from Cc1cccc(N2CCN(c3ccc4cc(S(=O)(=O)N5CCCCC5)ccc4n3)CC2)c1C to CC1CCN(S(=O)(=O)c2ccc3c(c2)C(=NO)c2cc(S(=O)(=O)N4CCC(C)CC4)ccc2-3)CC1, the “hERG current change (%, negative = inhibition) at 1uM” value falls from 24.4% to 12.7%.

Compared with COC(=O)c1ccc(OC(=O)CCS(=O)(=O)c2ccc(C)cc2)cc1, CCCCNC(=O)c1ccc(NS(=O)(=O)c2ccccc2)cc1 is higher in “hERG current change (%, negative = inhibition) at 1uM” value: 2.05% for the first, 19.4% for the second.

Going from Cl.O=C(NCCCn1ccnc1)c1ccc(F)cc1 to CCOc1ccccc1C(=O)NCC(=O)Nc1ccc2c(c1)OCO2, the “hERG current change (%, negative = inhibition) at 1uM” value rises from 8.24% to 8.79%.

Compared with CC(C)c1[nH]nc2c1C(c1cccs1)C(C#N)=C(N)O2 (stereo not drawn), COc1ccccc1NC(=O)C1=C(C)NC2=C(C(=O)CCC2)C1c1ccc2c(c1)OCO2 (stereo not drawn) is lower in “hERG current change (%, negative = inhibition) at 1uM” value: 19.1% for the first, 7.68% for the second.

First: COc1ccc(/C(N)=N/OC(=O)N2CCOCC2)cc1
Second: COc1cc(O)c(C(CCN2CCCCC2)c2ccc3c(c2)OCO3)c(OC)c1 (stereo not drawn)
The “hERG current change (%, negative = inhibition) at 1uM” value of the first is higher: -16.2% for the first, -72.1% for the second.

Compared with CCC(C)NC(=O)Cn1c(COc2ccc(Cl)cc2Cl)nc2ccccc21 (stereo not drawn), COc1ccccc1NC(=O)CSc1nnc(-c2ccccn2)o1 is higher in “hERG current change (%, negative = inhibition) at 1uM” value: 10.7% for the first, 12.9% for the second.

First: CC(=O)Nc1cccc(C(=O)N(Cc2ccccc2)Cc2ccccc2)c1
Second: O=C(O)c1ccc(NC(=O)c2cccc(NC(=O)c3cccs3)c2)cc1
The “hERG current change (%, negative = inhibition) at 1uM” value of the first is higher: 15.1% for the first, -0.166% for the second.

Going from COC(=O)c1nc(NC2=NCCCCC2)n[nH]1 to O=c1[nH]c2cc3c(cc2cc1C(c1nnnn1CC1CCCO1)N1CCCC1)OCO3 (stereo not drawn), the “hERG current change (%, negative = inhibition) at 1uM” value rises from 10.4% to 15.4%.

Compared with CC1(C)CC(OC(=O)c2ccccc2)CC(C)(C)N1, CCN(CC)CCOC(=O)c1ccccc1Br.Cl is lower in “hERG current change (%, negative = inhibition) at 1uM” value: 9.89% for the first, 7.4% for the second.

Going from COc1ccc2nc(C)cc(N/N=C/c3ccccc3)c2c1 to Nc1c(S(=O)(=O)c2ccccc2)c2nc3ccccc3nc2n1/N=C/c1cccc(O)c1, the “hERG current change (%, negative = inhibition) at 1uM” value rises from 5.19% to 10.4%.

For c1cnc2c(OCc3cn4cccnc4n3)cccc2c1, the “hERG current change (%, negative = inhibition) at 1uM” value was 14.4%.
